Assay results from patent US20250026844A1 (SHANDONG SIMCERE BIOPHARMACEUTICAL, published 2025).
Numbering of substitutions follows the chain as printed.

T1: human BCMA on cells (human, UniProt Q02223 1-184)
T1 construct: whole, on cells; also called H929 cells; U266 cells
T1 sequence (looked up): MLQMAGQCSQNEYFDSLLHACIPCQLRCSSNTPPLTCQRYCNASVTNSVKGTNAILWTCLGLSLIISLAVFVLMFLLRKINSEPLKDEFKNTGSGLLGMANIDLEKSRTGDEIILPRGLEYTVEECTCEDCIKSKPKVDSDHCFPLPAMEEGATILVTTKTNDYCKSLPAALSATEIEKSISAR

T2: human BCMA-His protein (human, UniProt Q02223 1-54)
T2 construct: Bought protein; also called human BCMA protein; huBCMA-His; not shown: His tag
T2 sequence (looked up): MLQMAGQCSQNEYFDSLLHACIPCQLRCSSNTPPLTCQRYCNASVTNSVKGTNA

B1: BCMA-Lab01-VHH1 (Fc fusion)
heavy: EVQLVESGGGLVQPGGSLRLSCSASGFTLDYYMMGWFRQAPGKEREGVSSISPADGSTYYADSVKGRFTISRDNSKNTLYLQMNSLRAEDTAVYYCAAGNEATISWGFGPWEYDYWGQGTMVTVSS[human IgG1 Fc with C220S (EU numbers) skipped]
notes: Humanized VHH-Fc; no linker stated
B2: BCMA-Lab01-VHH6 (Fc fusion)
heavy: B1 heavy with M34I, V48L, N74S, L79V
notes: as for B1
B3: BCMA-Lab01-VHH3 (Fc fusion)
heavy: B1 heavy with M34I, N74S, L79V
notes: as for B1
B4: BCMA-Lab01-VHH2 (Fc fusion)
heavy: B1 heavy with N74S
notes: as for B1
B5: BCMA-Lab01-VHH5 (Fc fusion)
heavy: B1 heavy with M34I, N74S, L79V, V93L, M121Q
notes: as for B1
B6: BCMA-Lab01-VHH4 (Fc fusion)
heavy: B1 heavy with M34I, N74S, S75A, L79V
notes: as for B1
B7: BCMA-Lab01-VHH7 (Fc fusion)
heavy: B1 heavy with E1Q, M34I, N74S, L79V
notes: as for B1
B8: BCMA-Lab02-VHH3 (Fc fusion)
heavy: EVQLVESGGGLVQPGGSLRLSCAASESISSIHIMAWYRQAPGKQRELVAGIRNDGSTYYVDSVKGRFTISRDNAKNSLYLQMNSLRAEDTAVYYCNADQGFGSYSEWERRSRWGQGTTVTVSS[human IgG1 Fc with C220S (EU numbers) skipped]
notes: as for B1
B9: BCMA-Lab02-VHH1 (Fc fusion)
heavy: B8 heavy with A35S, G50N
notes: as for B1
B10: BCMA-Lab02-VHH2 (Fc fusion)
heavy: B8 heavy with G50N
notes: as for B1
B11: BCMA-Lab02-VHH6 (Fc fusion)
heavy: B8 heavy with Y58V, V60A
notes: as for B1
B12: BCMA-Lab02-VHH4 (Fc fusion)
heavy: B8 heavy with Y58V
notes: as for B1
B13: BCMA-Lab02-VHH5 (Fc fusion)
heavy: B8 heavy with Q39R, Y58V
notes: as for B1
B14: BCMA-Lab02-VHH8 (Fc fusion)
heavy: B8 heavy with Q39R, Y58V, T118E
notes: as for B1
B15: BCMA-Lab02-VHH7 (Fc fusion)
heavy: B8 heavy with Y58V, L78V
notes: as for B1
B16: BCMA-Lab17 (Fc fusion)
heavy: QVQLVESGGGLVQPGGSLRLSCTGSGFTLDYYMIGWFRQAPGKEREGLSCISSGDGSTYYADSVKGRFTISRDNAKNTVYLQMNSLKPEDTAVYYCAAGNEATITWGFGPWEYDYWGQGTQVTVSS[human IgG1 Fc with C220S (EU numbers) skipped]
B17: BCMA-Lab15 (Fc fusion)
heavy: B16 heavy with V2L, T23A, S53P, G54A, N74S, V93L, A102G, T103G, T105S, W111Y
B18: BCMA-Lab11 (Fc fusion)
heavy: QVQLVESGGGLVQPGGSLRLSCAASGSIFSIYAMGWYRQAPGKQRELVAAITSGTNTYYRDSVKGRFTISRDNAKNTVYLQMNSLKPEDTAVYSCNVAPWGDYDGAADFVSWGQGTQVTVSS[human IgG1 Fc with C220S (EU numbers) skipped]
B19: BCMA-Lab14 (Fc fusion)
heavy: B18 heavy with Q1E, L4V, S30N, T55G, N56S, D61E, V78M, S94Y, V110D
B20: BCMA-Lab12 (Fc fusion)
heavy: QLQLVESGGGLVQAGGSLRLSCEASGSIFSINAIGWFRQAPGKEREGVSCISRSDGKTYYADSVKGRFTISRDNAKNTVYLQMNSLKPEDTAVYYCATDPSTRYGCYDPALFDSWGQGTQVTVSS[human IgG1 Fc with C220S (EU numbers) skipped]

These binders were tested against T1, human BCMA on cells (assay: FACS, H929 cells).

B1 and B2 are within 1.5-fold of each other in EC50: 4.08 nM for the first, 3.5 nM for the second.

B3 and B4 are within 1.5-fold of each other in EC50: 2.85 nM for the first, 4.22 nM for the second.

B5 and B6 are within 1.5-fold of each other in EC50: 3.82 nM for the first, 2.88 nM for the second.

B7 and B8 are within 1.5-fold of each other in EC50: 3.06 nM for the first, 2.27 nM for the second.

B11 and B12 are within 1.5-fold of each other in EC50: 1.54 nM for the first, 1.45 nM for the second.

B13 and B14 are within 1.5-fold of each other in EC50: 1.33 nM for the first, 1.49 nM for the second.

Binder B15 has an EC50 of 0.39 nM.

Compared with B1, B2 is higher in “Maximum mean fluorescence intensity” value: 6350 MFI for the first, 10100 MFI for the second.

Compared with B4, B5 is higher in “Maximum mean fluorescence intensity” value: 6620 MFI for the first, 9090 MFI for the second.

Going from B6 to B8, the “Maximum mean fluorescence intensity” value rises from 8230 MFI to 9830 MFI.

B11 and B12 are the same in “Maximum mean fluorescence intensity” value: 10100 MFI for the first, 10100 MFI for the second.

With B15 the “Maximum mean fluorescence intensity” value was 9840 MFI.

B9: no binding.
B10: no binding.

The binders below were run against T1, human BCMA on cells (assay: FACS, U266 cells).

Compared with B1, B2 is 1.7-fold lower in EC50: 5.43 nM for the first, 3.25 nM for the second.

Compared with B3, B4 is 1.9-fold higher in EC50: 3.48 nM for the first, 6.75 nM for the second.

B5 and B6 are within 1.5-fold of each other in EC50: 4.01 nM for the first, 3.99 nM for the second.

B7 and B8 are within 1.5-fold of each other in EC50: 3.71 nM for the first, 3.02 nM for the second.

Going from B11 to B12, the EC50 falls from 1.86 nM to 1.18 nM (1.6-fold). The second is the more potent here.

B15 was tested, and the EC50 was 0.74 nM.

Going from B1 to B2, the “Maximum mean fluorescence intensity” value rises from 1030 MFI to 1750 MFI.

Going from B4 to B5, the “Maximum mean fluorescence intensity” value rises from 1300 MFI to 1590 MFI.

Going from B6 to B8, the “Maximum mean fluorescence intensity” value rises from 1610 MFI to 1750 MFI.

Going from B11 to B12, the “Maximum mean fluorescence intensity” value falls from 1830 MFI to 1760 MFI.

B15 was tested, and the “Maximum mean fluorescence intensity” value was 1850 MFI.

Target: T1, human BCMA on cells
Assay: FACS, H929 cells
Remark: another data set of the same source

First: B16
Second: B17
The EC50 of the first is 2.4-fold lower: 1.74 nM for the first, 4.12 nM for the second. The first is the more potent here.

B18 and B19 are within 1.5-fold of each other in EC50: 4.03 nM for the first, 5.6 nM for the second.

In the case of B20, the EC50 is reported as 9.36 nM.

Going from B16 to B17, the “Maximum mean fluorescence intensity” value rises from 3310 MFI to 4650 MFI.

First: B18
Second: B19
The “Maximum mean fluorescence intensity” value of the first is higher: 5100 MFI for the first, 4960 MFI for the second.

B20 was tested, and the “Maximum mean fluorescence intensity” value was 4570 MFI.

Target: T1, human BCMA on cells
Assay: FACS, U266 cells
Remark: another data set of the same source

First: B16
Second: B17
The EC50 of the first is 2.1-fold lower: 0.98 nM for the first, 2.03 nM for the second. The first is the more potent here.

Compared with B18, B19 is 1.7-fold higher in EC50: 2.03 nM for the first, 3.5 nM for the second.

In the case of B20, the EC50 is reported as 4.29 nM.

Compared with B16, B17 is higher in “Maximum mean fluorescence intensity” value: 1010 MFI for the first, 1340 MFI for the second.

Going from B18 to B19, the “Maximum mean fluorescence intensity” value falls from 1360 MFI to 1300 MFI.

In the case of B20, the “Maximum mean fluorescence intensity” value is reported as 858 MFI.

These binders were tested against T2, human BCMA-His protein (assay: SPR (Biacore), antibody captured on Protein A chip, BCMA-His in solution).

First: B1
Second: B2
The Kd of the first is 12-fold higher: 7.07 nM for the first, 0.613 nM for the second. The second binds more tightly here.

First: B3
Second: B4
The Kd of the first is 2.9-fold lower: 1.2 nM for the first, 3.48 nM for the second.

B5 and B6 are within 1.5-fold of each other in Kd: 1.17 nM for the first, 1.2 nM for the second.

Compared with B7, B12 is 9-fold lower in Kd: 1.32 nM for the first, 0.146 nM for the second.

B13 and B15 are within 1.5-fold of each other in Kd: 0.132 nM for the first, 0.0882 nM for the second.

Compared with B1, B2 is 10-fold lower in koff: 0.00841 s⁻¹ for the first, 0.000802 s⁻¹ for the second.

Going from B3 to B4, the koff rises from 0.00138 s⁻¹ to 0.00361 s⁻¹ (2.6-fold).

B5 and B6 are within 1.5-fold of each other in koff: 0.00141 s⁻¹ for the first, 0.00137 s⁻¹ for the second.

Going from B7 to B12, the koff falls from 0.00147 s⁻¹ to 0.000137 s⁻¹ (11-fold).

B13 and B15 are within 1.5-fold of each other in koff: 0.000103 s⁻¹ for the first, 7.1e-05 s⁻¹ for the second.

B1 and B2 are within 1.5-fold of each other in kon: 1.19e+06 M⁻¹ s⁻¹ for the first, 1.31e+06 M⁻¹ s⁻¹ for the second.

B3 and B4 are within 1.5-fold of each other in kon: 1.15e+06 M⁻¹ s⁻¹ for the first, 1.04e+06 M⁻¹ s⁻¹ for the second.

B5 and B6 are within 1.5-fold of each other in kon: 1.2e+06 M⁻¹ s⁻¹ for the first, 1.14e+06 M⁻¹ s⁻¹ for the second.

B7 and B12 are within 1.5-fold of each other in kon: 1.11e+06 M⁻¹ s⁻¹ for the first, 937000 M⁻¹ s⁻¹ for the second.

B13 and B15 are within 1.5-fold of each other in kon: 784000 M⁻¹ s⁻¹ for the first, 805000 M⁻¹ s⁻¹ for the second.

Target: T2, human BCMA-His protein
Assay: as above
Remark: another data set of the same source

Going from B16 to B17, the Kd falls from 4.25 nM to 0.887 nM (4.8-fold).

Going from B18 to B19, the Kd rises from 0.217 nM to 0.56 nM (2.6-fold). The first binds more tightly here.

Binder B20 has a Kd of 14.9 nM.

Compared with B16, B17 is 8-fold lower in koff: 0.0176 s⁻¹ for the first, 0.00219 s⁻¹ for the second.

Compared with B18, B19 is 2-fold higher in koff: 0.00126 s⁻¹ for the first, 0.00248 s⁻¹ for the second.

B20 was tested, and the koff was 0.0103 s⁻¹.

Going from B16 to B17, the kon falls from 4.15e+06 M⁻¹ s⁻¹ to 2.47e+06 M⁻¹ s⁻¹ (1.7-fold).

B18 and B19 are within 1.5-fold of each other in kon: 5.83e+06 M⁻¹ s⁻¹ for the first, 4.43e+06 M⁻¹ s⁻¹ for the second.

In the case of B20, the kon is reported as 692000 M⁻¹ s⁻¹.
